Assay results as given in PMC6919601, “Identification of Plasmodium dipeptidyl aminopeptidase allosteric inhibitors by high throughput screening” (PLoS ONE, 2019).
Screen size: about 110,000 compounds; about 230 (0.21%) showed an effect of 50% or more. This is one part of the list.

These compounds were tested against DPAP1 (Plasmodium falciparum, UniProt Q8IIJ9) (assay: primary screen, percent inhibition; read by cleavage of a fluorogenic dipeptide substrate; higher = more effect of the substance).
Parameters: species or system P. falciparum D10 trophozoite lysates; single well
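Further: 30 min substrate incubation versus DMSO and 10 µM JCP410 controls.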

Chain of DPAP1 (Q8IIJ9 whole entry, looked up): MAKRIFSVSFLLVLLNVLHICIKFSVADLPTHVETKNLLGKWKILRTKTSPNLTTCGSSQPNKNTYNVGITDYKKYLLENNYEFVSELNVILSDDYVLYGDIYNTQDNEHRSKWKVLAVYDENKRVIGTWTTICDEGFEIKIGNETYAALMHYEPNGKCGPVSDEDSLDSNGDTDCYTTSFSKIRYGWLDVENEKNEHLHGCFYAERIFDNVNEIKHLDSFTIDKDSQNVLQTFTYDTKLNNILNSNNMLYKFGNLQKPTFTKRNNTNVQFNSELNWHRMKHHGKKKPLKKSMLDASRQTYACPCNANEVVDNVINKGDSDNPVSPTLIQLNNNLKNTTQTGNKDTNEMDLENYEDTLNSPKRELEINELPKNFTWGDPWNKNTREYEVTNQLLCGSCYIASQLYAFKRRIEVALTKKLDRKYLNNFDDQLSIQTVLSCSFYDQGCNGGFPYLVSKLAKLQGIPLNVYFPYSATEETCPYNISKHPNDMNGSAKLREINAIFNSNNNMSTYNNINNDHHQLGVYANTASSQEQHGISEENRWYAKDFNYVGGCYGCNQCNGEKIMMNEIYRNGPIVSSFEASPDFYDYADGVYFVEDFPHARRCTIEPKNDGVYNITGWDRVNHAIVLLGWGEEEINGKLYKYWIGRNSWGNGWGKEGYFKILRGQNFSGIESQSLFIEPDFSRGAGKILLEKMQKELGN

First: CCOc1cccc(-c2nc(O)c3c(n2)Oc2c(cccc2OC)C3)c1O
Second: CCc1ccc(-c2[nH]nc3nc(-c4ccc(O)c(OC)c4)cc(C(=O)O)c23)cc1
The “% Inhibition @ 10 uM” value of the first is higher: 3.92% for the first, -2.07% for the second.

Compared with `C=CCN1C(=O)/C(=C/Nc2ccc(O)cc2)C(=O)N(CCCC)C1=O`, `OCCN1CCN(Cc2ccc(O)cc2)CC1` is lower in “% Inhibition @ 10 uM” value: 4.01% for the first, 0.526% for the second.

First: N#Cc1c(-c2cccc(Br)c2)cc(-c2ccccc2)nc1N
Second: CCN(CC)c1nc(-c2ccccc2)c2cc(Cl)ccc2n1
The “% Inhibition @ 10 uM” value of the first is higher: 3.48% for the first, 2.05% for the second.

First: O=C(O)CCC(=O)Nc1ccc(Br)cn1
Second: O=C(CCCC(=O)c1ccccc1)Nc1nc[nH]n1
The “% Inhibition @ 10 uM” value of the first is higher: 1.66% for the first, 0.238% for the second.

First: CCNC(=O)/C(=C\c1ccc(OC)cc1)NC(=O)c1ccccc1OC
Second: CCOc1ccccc1C(=O)Nc1cccc(Cl)c1
The “% Inhibition @ 10 uM” value of the first is higher: 3.96% for the first, -3.49% for the second.

Compared with `CC1(C)OC(=O)N(CCCCCCN2C(=O)OC(C)(C)C2(C)O)C1(C)O` (stereo not drawn), `Cc1c2cnn(CC(=O)NCCCN3CC(C)CC(C)C3)c(=O)c2c(C)n1Cc1ccccc1` (stereo not drawn) is lower in “% Inhibition @ 10 uM” value: -3.42% for the first, -3.96% for the second.

First: O=[N+]([O-])c1cccc(/C=C/C2=CCN(CC(O)c3ccccc3)CC2)c1 (stereo not drawn)
Second: CC1Cn2c(C(=O)NC(C)c3ccccc3)cc3c(Cl)ccc(c32)O1 (stereo not drawn)
The “% Inhibition @ 10 uM” value of the first is higher: 3.9% for the first, -3.34% for the second.

First: C/N=C1\S/C(=C\c2cccn2-c2ccc(Cl)cc2)C(=O)N1C
Second: COC1(c2ccc(Cl)cc2)OC(=O)c2ccccc21 (stereo not drawn)
The “% Inhibition @ 10 uM” value of the first is higher: 4.39% for the first, -5.01% for the second.

First: CC(=O)N1CC(=O)Nc2ccc(C)cc2C1c1ccccc1 (stereo not drawn)
Second: CCC(Oc1ccccc1)C(=O)Nc1ccc(C)cc1 (stereo not drawn)
The “% Inhibition @ 10 uM” value of the first is higher: 4.88% for the first, -6.57% for the second.

Going from `CCc1cc2c(cc3c(=O)n(CC(=O)NCc4ccc(OC(C)C)cc4)nc(CC)n32)s1` to `CCc1nn(C(CC)C(=O)NCc2ccccc2C)c(=O)c2cc3oc(C)cc3n12` (stereo not drawn), the “% Inhibition @ 10 uM” value falls from 6.35% to -7.54%.

First: CCc1cc2c(NCc3ccccc3)ncnc2s1
Second: CC(=O)NC1=C(NCc2ccccc2)CC(C)(C)CC1=O
The “% Inhibition @ 10 uM” value of the first is lower: -4.73% for the first, 11% for the second.

First: CCOc1ccc2c(c1)C(C)=CC(C)(C)N2S(=O)(=O)c1ccc(C)cc1
Second: COc1ccc(N2CCN(Cc3ccc(OC)c(C)c3)CC2)cc1
The “% Inhibition @ 10 uM” value of the first is lower: -2.32% for the first, -0.0404% for the second.

Going from `CC(C)N(Cc1ccccc1)C(=O)Cc1noc2ccccc12` to `O=C(NCc1ccccc1)/C(=C\c1ccc(-c2ccc(Br)cc2)o1)NC(=O)c1ccccc1`, the “% Inhibition @ 10 uM” value falls from 1.51% to -3.98%.

Going from `COCCCN1CN(Cc2ccccc2)CNC1=S` to `CC(Cc1ccccc1F)N1CCN(CCO)CC1` (stereo not drawn), the “% Inhibition @ 10 uM” value rises from -7.56% to 1.57%.

Going from `COc1ccc(CCNC(=O)c2ccc(CS(=O)c3ccccc3Cl)o2)c(OC)c1OC` (stereo not drawn) to `COc1ccc(CCNC(=O)c2cc3c(=O)n4cccc(C)c4nc3n2C)cc1OC`, the “% Inhibition @ 10 uM” value rises from -1.86% to 1.39%.

Going from `COc1ccc(CNC(=O)C2CC(C)=CCC2C(=O)O)cc1` (stereo not drawn) to `CCC(=O)Nc1sc(Cc2ccccc2)c(C)c1C(N)=O`, the “% Inhibition @ 10 uM” value falls from 1.96% to -4.05%.

Going from `COc1ccc(-c2cc(C)no2)cc1S(=O)(=O)N1CCCC(CN2CCc3ccccc3C2)C1` (stereo not drawn) to `CN(CC(=O)N1CC(=O)N(CCc2ccccc2)C(=O)C1)S(=O)(=O)c1cccc2nsnc12`, the “% Inhibition @ 10 uM” value falls from -4.57% to -5.1%.

Compared with `Cc1c(Br)c(C(=O)NCc2cc3cc(Cl)ccc3[nH]2)nn1C`, `O=C(Cn1cnc2ccc(Br)cc2c1=O)c1cccs1` is lower in “% Inhibition @ 10 uM” value: 3.72% for the first, -1.32% for the second.

Going from `CCn1nc(C)c2c(C(F)(F)C(F)(F)F)cc(=O)n(CC(=O)O)c21` to `CCO/C(O)=C1/C(C)=Nc2nc(SCc3ccccc3)nn2C1c1ccc(OC)cc1OC` (stereo not drawn), the “% Inhibition @ 10 uM” value falls from 3.1% to 1.68%.

Going from `CCn1nccc1C(=O)NC(C)C1CC2CCC1C2` (stereo not drawn) to `c1ccc(C2CCC(NCCCN3CCOCC3)CC2)cc1` (stereo not drawn), the “% Inhibition @ 10 uM” value rises from 0.142% to 4.75%.

First: CCOc1ccc(CN2CCN(Cc3ccc4c(c3)OCO4)CC2)cc1
Second: C(#Cc1ccccc1)CN1CCN(C2CCCCC2)CC1
The “% Inhibition @ 10 uM” value of the first is higher: -5.52% for the first, -6.09% for the second.

Compared with `CCOc1cc(C2C(C#N)=C(N)OC3=C2C(=O)CCC3)ccc1O` (stereo not drawn), `CCO/C(O)=C1/C(C)=NC2=C(C(=O)CC(c3ccccc3)C2)C1c1ccc(Cl)cc1` (stereo not drawn) is higher in “% Inhibition @ 10 uM” value: -8.11% for the first, 1.43% for the second.

Going from `CC1=C(C(=O)Nc2cccnc2)C(c2ccc(F)cc2)C2=C(O)CC(c3ccccc3)CC2=N1` (stereo not drawn) to `C#CCOC(=O)c1ccccc1C(=O)Nc1ccc(Br)cc1`, the “% Inhibition @ 10 uM” value falls from 0.687% to -2.62%.

First: CSC1=NSC2=NC(=O)/C(=C\c3cc(C)n(-c4ccccc4)c3C)C(=N)N12
Second: N#Cc1ccc(Oc2ccc(C(=O)OCC(=O)c3ccccc3)cc2)cc1C#N
The “% Inhibition @ 10 uM” value of the first is higher: -0.503% for the first, -6.2% for the second.
